Counter-ions that a name gives are not always drawn. This is one part of the list.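 How the source made its calls: active = more than 2 SD below the DMSO mean: under 0.85 at 10 µM or 0.885 at 1 µM; inactive = the rest.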 Single values are uncertain, as repeats are few or missing.
Test system: RPE1
Test: nucleolar normality score relative to DMSO (fraction of DMSO control); RPE1 is a non-cancer human cell line; higher = more normal nucleoli (less nucleolar stress)
Conditions: 24 h
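Further: fixed cells immunolabelled for nucleolin and UBF, 40 image fields per well in 384-well plates, per-cell score = nucleolin nucleolar/nucleoplasm intensity ratio divided by the matching UBF ratio.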

Row | SMILES | nucleolar normality score (1 µM) | nucleolar normality score (10 µM)
1 | c1nc2c(NC3CCCCC3)nc(Nc3ccc(N4CCOCC4)cc3)nc2[nH]1 [Reversine] | inactive: 0.934 | active: 0.783
2 | CNc1cc(-c2cccc(Cl)c2Cl)nc(N)n1 | inactive: 1.08 | inactive: 1.07
3 | COc1nc(OCc2cccc(-c3ccccc3)c2C)ccc1CNCCNC(C)=O [BMS202 (PD-1/PD-L1 inhibitor 2)] | inactive: 1.03 | inactive: 1.09
4 | O=C(Nc1ccncc1)c1cc([N+](=O)[O-])ccc1Cl | inactive: 1.08 | inactive: 0.928
5 | CC(C)(O)CNc1ncc(-c2ccnc(Nc3ccnc(Cl)c3)n2)c(CC2CC2)n1 | inactive: 1.03 | inactive: 1.02
6 | Cn1c(-c2ccccc2C(F)(F)F)nnc1C12CCC(c3noc(C4CC(F)(F)C4)n3)(CC1)CC2 | inactive: 0.977 | inactive: 1.01
7 | COc1cc2c(c(OC)c1OC)-c1c(cc(OC)c(OC)c1OC)C[C@H](C)[C@H](C)C2 [Schisandrin A] | inactive: 1.07 | inactive: 1.09
8 | CCN1CCN(Cc2ccc(C(=O)Nc3ccc(C)c(Oc4ccc5c(c4)CC(=O)N5)c3)cc2C(F)(F)F)CC1 | inactive: 1 | inactive: 1.11
9 | Cc1cc(CN2CCN(c3c(Br)cnc4nc(-c5ccc(N6CCN(C)CC6)cc5)[nH]c34)CC2)no1 | inactive: 0.969 | inactive: 0.937
10 | O=C(Oc1cc(S(=O)(=O)c2ccccc2)ccc1[N+](=O)[O-])c1ccc(Cl)cc1 | inactive: 0.935 | inactive: 1.02
11 | COc1ccc(-n2c(SCCCN3C(=O)c4cccc5cccc(c45)C3=O)nnc2-c2ccncc2)cc1 | inactive: 0.927 | inactive: 1.03
12 | Cc1cccc(CC(=O)N2CCc3c2ccc(-c2cn(C)c4ncnc(N)c24)c3F)n1 | inactive: 1.03 | inactive: 1.06
13 | Cc1c(-c2cnccn2)ssc1=S [Oltipraz] | inactive: 1.02 | inactive: 1.02
14 | CCn1c2ccccc2c2cc(CNCc3ccccc3OC)ccc21 | inactive: 0.968 | inactive: 0.998
15 | C=CC(=O)N1CCCC(n2c(=O)n(-c3ccc(Oc4ccccc4)cc3)c3c(N)ncnc32)C1 (stereo unspecified) [ONO-4059 analogue] | inactive: 0.979 | inactive: 0.988
16 | Cc1ccc(NC(=O)c2cccc(C(C)(C)C#N)c2)cc1Nc1ccc2ncn(C)c(=O)c2c1 | inactive: 1.03 | inactive: 0.907
17 | Clc1ccc(C(c2c[nH]c3ccccc23)c2c[nH]c3ccccc23)cc1 | inactive: 0.95 | inactive: 0.959
18 | CC(C)OC(=O)C1=CN(C(=O)c2ccc(F)c(F)c2)CC(C)(C)c2c1[nH]c1ccccc21 [Turofexorate Isopropyl (XL335)] | inactive: 0.988 | inactive: 0.853
19 | CN(CCNc1ccnc2cc(Cl)ccc12)CCNc1ccnc2cc(Cl)ccc12 | inactive: 1.01 | inactive: 0.898
20 | Cc1ccc(F)c(NC(=O)Nc2ccc(-c3cccc4[nH]nc(N)c34)cc2)c1 [Linifanib (ABT-869)] | inactive: 0.923 | inactive: 1.07

Row | SMILES | nucleolar normality score (1 µM) | nucleolar normality score (10 µM)
21 | Cc1[nH]nc(C(F)(F)F)c1Cc1sc2c(c1C(=O)N1C[C@](C)(O)CO1)c(=O)n(C)c(=O)n2C(C)C | inactive: 0.956 | inactive: 1.05
22 | COc1cc2ncnc(Nc3cccc(Cl)c3)c2cc1OC [AG-1478 (Tyrphostin AG-1478)] | inactive: 1.05 | inactive: 1.06
23 | CS(=O)(=O)c1ccc(-c2nnc(/C=C/c3nnc(-c4ccc(C#N)cc4)o3)n2-c2ccccc2Cl)nc1 | inactive: 0.933 | inactive: 0.942
24 | Cc1c(CN2CCC(Nc3ncnc4sc(CC(F)(F)F)cc34)CC2)ccc2[nH]c(C#N)cc12 | inactive: 1.07 | inactive: 1.01
25 | NC(=O)c1ccc(I)c([N+](=O)[O-])c1 [Iniparib (BSI-201)] | inactive: 1.1 | inactive: 1.09
26 | CN/C(=N\CCSCc1nc[nH]c1C)NC#N [Cimetidine] | inactive: 1.03 | inactive: 1.09
27 | COc1ccc(C2=N[C@@H](c3ccc(Cl)cc3)[C@@H](c3ccc(Cl)cc3)N2C(=O)N2CCNC(=O)C2)c(OC(C)C)c1 [Nutlin-3] | inactive: 0.961 | inactive: 1.04
28 | NS(=O)(=O)c1ccc(NC(=S)N2CCN(CC=Cc3ccccc3)CC2)cc1 | inactive: 0.912 | inactive: 1.02
29 | CCCNC(=O)Nc1ccc(Oc2ncnc3cc(OC)c(OC)cc23)cc1Cl | inactive: 1 | inactive: 1.06
30 | COc1cc(O)cc2c1C(=O)C[C@@H](c1ccccc1)O2 [Alpinetin] | inactive: 1.01 | inactive: 0.887
31 | COC1=CC(=O)c2ccccc2C1=O [2-Methoxy-1,4-naphthoquinone] | inactive: 0.935 | active: 0.789
32 | C[C@@H](O[C@H]1OCCN(Cc2n[nH]c(=O)[nH]2)[C@H]1c1ccc(F)cc1)c1cc(C(F)(F)F)cc(C(F)(F)F)c1 [Aprepitant] | inactive: 1.01 | inactive: 1.04
33 | NC(=O)c1ccc(-c2nc(-c3ccccn3)c(-c3ccc4c(c3)OCO4)[nH]2)cc1 | inactive: 0.977 | inactive: 1.05
34 | Cc1cn(-c2cc(NC(=O)c3ccc(C)c(Nc4nccc(-c5cccnc5)n4)c3)cc(C(F)(F)F)c2)cn1 [Nilotinib hydrochloride] | inactive: 1.03 | inactive: 0.997
35 | Cc1cn(-c2cc(NC(=O)c3ccc(C)c(Nc4nccc(-c5cccnc5)n4)c3)cc(C(F)(F)F)c2)cn1 [Nilotinib (AMN-107)] | inactive: 0.974 | inactive: 1.03
36 | CNC(=O)c1cc(Oc2ccc3nc(N[C@@H]4CCCC[C@H]4O)sc3c2)ccn1 | inactive: 1.09 | inactive: 1.05
37 | COc1ccc(-c2nc(-c3cc(C(F)(F)F)cc(C(F)(F)F)c3)n(Cc3ccc(C(N)=O)cc3)c2-c2ccc(OC)cc2)cc1 [Apoptozole] | inactive: 1.02 | inactive: 1.04
38 | CC(=O)c1c(C)c2cnc(Nc3ccc(N4CCNCC4)cn3)nc2n(C2CCCC2)c1=O | inactive: 0.903 | inactive: 1.14
39 | C[C@H]1[C@H](C)CC[C@]2(C(=O)O[C@@H]3O[C@H](CO[C@@H]4O[C@H](CO)[C@@H](O[C@@H]5O[C@H](C)[C@H](O)[C@@H](O)[C@H]5O)[C@H](O)[C@H]4O)[C@@H](O)[C@H](O)[C@H]3O)CC[C@]3(C)C(=CC[C@@H]4[C@@]5(C)C[C@@H](O)[C@H](O)[C@@](C)(CO)[C@@H]5CC[C@]43C)[C@H]12 [Asiaticoside] | inactive: 1.09 | inactive: 0.919
40 | NC(C=O)C(O)C(O)C(O)CO (stereo unspecified) [Glucosamine sulfate] | inactive: 1.05 | inactive: 1.09

Row | SMILES | nucleolar normality score (1 µM) | nucleolar normality score (10 µM)
41 | Cn1cc(/C=C2\C(=O)Nc3cccnc32)c2ccccc21 | inactive: 1.06 | inactive: 1.08
42 | CNC(=O)c1ccc(Nc2ncc(C(F)(F)F)c(NCc3nccnc3N(C)S(C)(=O)=O)n2)cc1 | inactive: 1.08 | active: 0.233
43 | CC(=NNC(=S)N1CCC1)c1ccccn1 | active: 0.533 | active: 0.615
44 | CN1C(=O)C(Cc2c[nH]c3ccccc23)NC1=S (stereo unspecified) [Necrostatin-1] | inactive: 1.05 | inactive: 1.01
45 | Nc1nc(OCC2CCCCC2)c2[nH]cnc2n1 | inactive: 1 | inactive: 0.987
46 | CCn1c(-c2nonc2N)nc2c(C#CC(C)(C)O)ncc(OC[C@H]3CCCNC3)c21 | inactive: 0.956 | inactive: 0.996
47 | Cc1cnc(-c2ccccc2C(C)C)nc1NCc1ccc(-n2ccnn2)cc1 | inactive: 1.04 | inactive: 1.06
48 | Nc1ccc(-c2ccc3ncc4ccc(=O)n(-c5cccc(C(F)(F)F)c5)c4c3c2)cn1 [Torin 2] | active: 0.596 | active: 0.55
49 | COc1cc2nc(N3CCCC3)nc(NCCCCCN3CCCC3)c2cc1OC | inactive: 0.893 | inactive: 0.875
50 | C#Cc1cccc(Nc2ncnc3cc(OCCOC)c(OCCO)cc23)c1 | inactive: 0.958 | inactive: 1.02
51 | Cn1cnc2c(F)c(Nc3ccc(Br)cc3F)c(C(=O)NOCCO)cc21 | inactive: 1.08 | inactive: 0.926
52 | CN1CCC(Nc2nc(Nc3ccc(Oc4ccccc4)cc3)c3c(=O)[nH]cc(Br)c3n2)CC1 | inactive: 0.968 | inactive: 0.9
53 | CC(=O)O[C@H]1C(=O)[C@@]2(C)[C@H]([C@H](OC(=O)c3ccccc3)[C@]3(O)C[C@H](OC(=O)[C@H](O)[C@@H](NC(=O)c4ccccc4)c4ccccc4)C(C)=C1C3(C)C)[C@]1(OC(C)=O)CO[C@@H]1C[C@@H]2O [Paclitaxel] | active: 0.725 | active: 0.76
54 | COc1cccc2c1C(=O)c1c(O)c3c(c(O)c1C2=O)C[C@@](O)(C(=O)CO)C[C@@H]3O[C@H]1C[C@H](N)[C@@H](O)[C@H](C)O1 [Epirubicin HCl] | inactive: 0.905 | active: 0.508
55 | C=C(C)[C@@H]1CC[C@]2(CO)CC[C@]3(C)[C@H](CC[C@@H]4[C@@]5(C)CC[C@H](O)C(C)(C)[C@@H]5CC[C@]43C)[C@@H]12 [Betulin] | inactive: 1.02 | inactive: 0.899
56 | O=[N+]([O-])c1ccc(Nc2ccccc2-c2ccccc2)c2nonc12 | inactive: 1.04 | inactive: 1.05
57 | CC1=C(/C=C/C(C)=C/C=C/C(C)=C/CO)C(C)(C)CCC1 [Vitamin A] | inactive: 1 | inactive: 1.02
58 | OCCn1cc(-c2cnc3nnn(Cc4ccc5ncccc5c4)c3n2)cn1 | inactive: 1.03 | inactive: 1.11
